# Test results taken from PubChem BioAssay (Tox21).
# Several values for one entry are separate records, joined by “and”; a condition that tells them apart may be missing. Equal values may be shown once. Inconclusive means that the source gave no clear call. Such entries were picked first, then a sample of the others. For part of these data: A potency beside an inconclusive call is a rough fit, not a confirmed value. Some structures have more than one record in an assay (separate samples or runs), and their calls can disagree. Activity calls are given as the source filed them. Unless noted, the call rests on the fitted dose curve; in most records, active means well fitted curve in the direction sought with a large enough effect in the repeat runs; inconclusive means weak or mixed curves; inactive means no such curve, though single readings can be large; an effect the other way counts as inactive or inconclusive.
# Key:
# [1] = qHTS assay to identify small molecule agonists of the estrogen receptor beta (ER-beta) signaling pathway - cell viability counter screen (AID 1259380); further: nearly all actives have a fitted effect of over 30% in size
# Method in brief: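 Same-well viability counter screen. Cells: ER-beta-UAS-bla HEK293T, plated 6 hr before compound, in 2% charcoal-stripped FBS. Compound exposure 16 hr, 37C; viability by CellTiter-Glo luminescence after 30 min at room temperature.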
# [2] = qHTS assay to identify small molecule agonists of the estrogen receptor alpha (ER-alpha) signaling pathway in the presence of an antagonist - cell viability counter screen (AID 1259386);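 further: cells exposed to compounds for 22 h at 37 °C before the viability read; nearly all actives have a fitted effect of over 30% in size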
# Method in brief: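 Cells are starved of estrogens for 5 days in charcoal-stripped serum, seeded for 24hr and co-treated with ICI-182,780 (10.0nM final) and test compounds. After 22hr at 37C, viability is read as CellTiter-Fluor fluorescence.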
# [3] = biological target: Progesterone receptor (Homo sapiens) (UniProt P06401); assay: qHTS assay to identify small molecule agonists of the progesterone receptor (PR) signaling pathway (AID 1346784; calls by dose curve; further: nearly all actives have a fitted effect of over 30% in size; on activation: on the % scale 0 is the no-effect control and ±100 the full control effect); conditions: PR-UAS-bla HEK293T, beta-lactamase FRET ratio, 16 h; activation: at 92.4 µM (top of the series) unless noted
# Method in brief: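 PR-UAS-bla HEK 293T cells (beta-lactamase reporter under UAS) in 2% charcoal-stripped FBS, dosed with 23 nL compound after 6 hr, incubated 16hr at 37C. LiveBLAzer B/G FRET substrate added, fluorescence read after 2 hours.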
# [4] = biological target: Progesterone receptor (Homo sapiens) (UniProt P06401); assay: qHTS assay to identify small molecule antagonists of the progesterone receptor (PR) signaling pathway (AID 1346795; active means well fitted inhibition curve with a large enough effect in the signal ratio in the repeat runs, not every such curve was filed as active; inconclusive means weak or mixed curves; the % refers to the signal ratio); conditions: PR-UAS-bla HEK293T, beta-lactamase FRET ratio, 16 h; activity change, negative = inhibition: at 92.4 µM (top of the series) unless noted
# Method in brief: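 PR-UAS-bla HEK293T cells with beta-lactamase reporter under UAS control, in 2% charcoal-stripped FBS, treated with compounds plus 1 nM promegestone (R5020, final) for 16 hr at 37C. Read-out: FRET beta-lactamase substrate fluorescence after 2 hr at room temperature.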
# [5] = qHTS assay to identify small molecule agonists of the progesterone receptor (PR) signaling pathway - cell viability counter screen (AID 1346799; calls by dose curve; further: nearly all actives have a fitted effect of over 45% in size)
# Method in brief: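 Counter screen in the PR-UAS-bla HEK293T wells (2% charcoal-stripped FBS, 16 h compound exposure at 37 C) after the bla read. CellTiter-Glo added, 30 min at room temperature, luminescence read as cell viability.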
# [6] = qHTS assay to identify small molecule antagonists of the TGF-beta/Smad signaling pathway - cell viability counter screen (AID 1346824); further: nearly all actives have a fitted effect of over 50% in size
# Method in brief: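 SBE-bla HEK 293T cells, incubated overnight, then compound plus 0.25 ng/mL TGF-beta1 (stock added) for 5 hr at 37 C. Viability was read in the same wells by CellTiter-Glo luminescence after 30 min at room temperature.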
# [7] = qHTS assay to identify small molecule antagonists of the TGF-beta/Smad signaling pathway (AID 1346924; active means well fitted inhibition curve with a large enough effect in the signal ratio in the repeat runs, not every such curve was filed as active; inconclusive means weak or mixed curves; the % refers to the signal ratio); conditions: SBE-bla HEK293T, TGF-beta/Smad reporter, beta-lactamase ratio; activity, negative = inhibition: at 76.8 µM (top of the series) unless noted
# Method in brief: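 SBE-bla HEK 293T cells were plated overnight, then received compound in DMSO plus TGF-beta1 (added as a 0.25 ng/mL solution) and were incubated 5 h at 37 C. Beta-lactamase reporter activity was read after 2 h at room temperature with LiveBLAzer B/G FRET substrate (ex 405, em 460/530 nm).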
# [8] = Human pregnane X receptor (PXR) small molecule agonists, qHTS cell viability counter screen (AID 1346977); further: nearly all actives have a fitted effect of over 50% in size
# Method in brief: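 PXR-Luc HepG2 cells (2,000/well, 5% charcoal-stripped FBS) preincubated 5 hr, then exposed to compounds 24 hr at 37 C. Viability read in the same wells by CellTiter-Fluor fluorescence, reagent added at 23 hr, 1 hr incubation.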
# [9] = qHTS assay to identify small molecule agonists or antagonists of the thyroid stimulating hormone receptor (TSHR) signaling pathway - wild type cell line counter screen (AID 1259384; calls by dose curve; on cAMP activity change: on the % scale 0 is the no-effect control and ±100 the full control effect); conditions: HEK293 wild type, cAMP HTRF counter-screen; cAMP activity change: at 92.4 µM (top of the series), stronger effect = higher value unless noted
# Method in brief: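 Wild-type Hek293 cells, 800/well, 18 h at 37C, then compound with Ro20-1724 for 30 min RT. cAMP by HTRF (cAMP-d2/anti-cAMP cryptate), 1 h RT, fluorescence read. 15 concentrations, triplicates.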
# [10] = biological target: Thyrotropin receptor (Homo sapiens) (UniProt P16473); assay: qHTS assay to identify small molecule antagonists of the thyroid stimulating hormone receptor (TSHR) signaling pathway (AID 1259385; calls by dose curve; further: nearly all actives have a fitted effect of over 20% in size; on activity change, negative = inhibition: on the % scale 0 is the no-effect control and ±100 the full control effect); conditions: TSHR-HEK293 cAMP HTRF, TSH-stimulated antagonist mode; activity change, negative = inhibition: at 92.4 µM (top of the series) unless noted
# Method in brief: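 TSHR-HEK293 cells (800/well) plated 18 h, then compounds with Ro20-1724 and TSH at 1.5 ng/mL final, 30 min at room temperature. cAMP quantified by HTRF (cAMP-d2/anti-cAMP-cryptate, 1 h); 15 concentrations in triplicate.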
# [11] = qHTS assay to identify small molecule antagonists of the progesterone receptor (PR) signaling pathway - cell viability counter screen (AID 1346798); further: nearly all actives have a fitted effect of over 50% in size
# Method in brief: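 PR-UAS-bla HEK293T cells, 3,000/well in 2% charcoal-stripped FBS medium, dosed with compounds plus R5020 agonist and incubated 16 h at 37C. Viability then measured in the same wells by CellTiter-Glo luminescence after 30 min at RT.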
# [12] = qHTS assay to identify small molecule agonists of the TGF-beta/Smad signaling pathway - cell viability counter screen (AID 1346829); further: nearly all actives have a fitted effect of over 45% in size
# Method in brief: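 Luminescence from CellTiter-Glo, read after a 30 min room-temperature incubation, gives cell viability of SBE-bla HEK 293T cells treated 5 hr with compounds at 37 C.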
# [13] = biological target: Estrogen receptor (Homo sapiens) (UniProt P03372); assay: qHTS assay to identify small molecule agonists of the estrogen receptor alpha (ER-alpha) signaling pathway in the presence of an antagonist (AID 1259383; calls by dose curve; further: nearly all actives have a fitted effect of over 15% in size; on activation: top concentration of the series differs between compounds; on the % scale 0 is the no-effect control and ±100 the full control effect)
# Method in brief: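 Cells are hormone-deprived for 5 days (charcoal-stripped FBS, no phenol red), plated for 24hr, spiked with 10.0nM ICI-182,780, then dosed at 15 concentrations. After 22hr at 37C, ONE-Glo luminescence reports ERE-luciferase activity.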
# [14] = Caspase-3/7 induction in CHO-K1 cells by small molecules, qHTS cell viability counter screen (AID 1346979); further: nearly all actives have a fitted effect of over 35% in size
# Method in brief: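 Wild-type CHO-K1 cells (1,500/well) treated with compound after 5 h plating; after 16 h at 37C, viability read as CellTiter-Fluor fluorescence following 1 h reagent incubation, in the same wells as the caspase read.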
# [15] = Caspase-3/7 induction in CHO-K1 cells by small molecules, qHTS assay (AID 1346980); further: nearly all actives have a fitted effect of over 15% in size
# Method in brief: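 Wild-type CHO-K1 cells exposed to compounds for 17hr at 37 C, 5% CO2. Caspase-3/7 activity then measured by Caspase-Glo 3/7 luminescence after 30min at room temperature.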
# [16] = qHTS assay to identify small molecule agonists of the TGF-beta/Smad signaling pathway (AID 1346859; active means well fitted activation curve with a large enough effect in the signal ratio in the repeat runs, not every such curve was filed as active; inconclusive means weak or mixed curves; the % refers to the signal ratio); conditions: SBE-bla HEK293T, TGF-beta/Smad beta-lactamase reporter, 5 h; activation: at 76.8 µM (top of the series)
# Method in brief: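 SBE-bla HEK293T cells plated overnight, then compound exposure for 5 h at 37 C. Beta-lactamase reporter read with LiveBLAzer B/G FRET substrate after 2 h at room temperature, fluorescence at 405 nm excitation, 460/530 nm emission.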
# Potency means the concentration at half of the fitted maximal effect; tags describe the fitted curve by direction and shape or compound fluorescence and quenching.
# Chain of UniProt P16473 (P16473 whole entry, looked up): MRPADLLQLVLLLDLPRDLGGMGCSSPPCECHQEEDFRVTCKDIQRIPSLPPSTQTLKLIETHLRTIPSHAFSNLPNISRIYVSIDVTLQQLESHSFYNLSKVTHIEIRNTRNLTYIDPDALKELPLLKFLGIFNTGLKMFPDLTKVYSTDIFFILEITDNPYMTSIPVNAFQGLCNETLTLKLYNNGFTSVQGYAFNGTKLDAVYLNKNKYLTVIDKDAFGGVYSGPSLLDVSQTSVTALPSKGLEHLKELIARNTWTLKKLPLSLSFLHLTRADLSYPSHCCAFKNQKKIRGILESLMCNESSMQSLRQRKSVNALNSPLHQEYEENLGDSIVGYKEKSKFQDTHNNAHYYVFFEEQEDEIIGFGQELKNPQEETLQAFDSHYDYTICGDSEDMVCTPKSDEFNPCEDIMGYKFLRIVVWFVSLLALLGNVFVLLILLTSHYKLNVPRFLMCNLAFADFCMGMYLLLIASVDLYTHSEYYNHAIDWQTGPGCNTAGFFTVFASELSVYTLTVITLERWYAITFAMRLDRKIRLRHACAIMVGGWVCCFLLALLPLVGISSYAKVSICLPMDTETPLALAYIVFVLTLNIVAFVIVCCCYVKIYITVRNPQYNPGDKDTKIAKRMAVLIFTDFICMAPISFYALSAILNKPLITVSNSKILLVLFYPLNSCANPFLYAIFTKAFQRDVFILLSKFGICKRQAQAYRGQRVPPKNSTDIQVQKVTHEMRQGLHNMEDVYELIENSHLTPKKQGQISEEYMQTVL
# Chain of UniProt P06401 (P06401 whole entry, looked up): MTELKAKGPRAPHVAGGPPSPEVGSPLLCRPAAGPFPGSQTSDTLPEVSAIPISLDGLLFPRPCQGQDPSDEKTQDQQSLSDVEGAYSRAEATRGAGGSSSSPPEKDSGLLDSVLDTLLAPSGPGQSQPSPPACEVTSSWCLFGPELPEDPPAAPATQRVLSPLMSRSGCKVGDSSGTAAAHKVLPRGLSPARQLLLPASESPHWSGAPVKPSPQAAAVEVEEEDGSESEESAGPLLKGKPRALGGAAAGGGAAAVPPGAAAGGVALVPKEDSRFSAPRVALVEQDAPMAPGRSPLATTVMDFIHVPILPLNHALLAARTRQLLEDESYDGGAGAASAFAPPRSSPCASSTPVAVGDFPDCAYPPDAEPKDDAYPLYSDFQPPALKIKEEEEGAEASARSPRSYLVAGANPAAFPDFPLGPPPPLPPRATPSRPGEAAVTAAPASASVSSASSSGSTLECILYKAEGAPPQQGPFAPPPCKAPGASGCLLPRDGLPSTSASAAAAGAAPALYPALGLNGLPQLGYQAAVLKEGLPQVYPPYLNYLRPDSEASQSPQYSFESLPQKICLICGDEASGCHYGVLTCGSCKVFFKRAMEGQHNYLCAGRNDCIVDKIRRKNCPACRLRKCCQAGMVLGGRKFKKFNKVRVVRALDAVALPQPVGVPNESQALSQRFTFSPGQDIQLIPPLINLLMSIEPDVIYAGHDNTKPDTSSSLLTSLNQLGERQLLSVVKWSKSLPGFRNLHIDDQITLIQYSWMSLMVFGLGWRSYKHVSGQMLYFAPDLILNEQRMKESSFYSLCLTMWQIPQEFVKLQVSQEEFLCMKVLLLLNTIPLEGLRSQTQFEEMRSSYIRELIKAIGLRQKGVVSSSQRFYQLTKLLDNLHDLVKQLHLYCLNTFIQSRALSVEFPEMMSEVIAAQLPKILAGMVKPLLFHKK
# Chain of UniProt P03372 (P03372 whole entry, looked up): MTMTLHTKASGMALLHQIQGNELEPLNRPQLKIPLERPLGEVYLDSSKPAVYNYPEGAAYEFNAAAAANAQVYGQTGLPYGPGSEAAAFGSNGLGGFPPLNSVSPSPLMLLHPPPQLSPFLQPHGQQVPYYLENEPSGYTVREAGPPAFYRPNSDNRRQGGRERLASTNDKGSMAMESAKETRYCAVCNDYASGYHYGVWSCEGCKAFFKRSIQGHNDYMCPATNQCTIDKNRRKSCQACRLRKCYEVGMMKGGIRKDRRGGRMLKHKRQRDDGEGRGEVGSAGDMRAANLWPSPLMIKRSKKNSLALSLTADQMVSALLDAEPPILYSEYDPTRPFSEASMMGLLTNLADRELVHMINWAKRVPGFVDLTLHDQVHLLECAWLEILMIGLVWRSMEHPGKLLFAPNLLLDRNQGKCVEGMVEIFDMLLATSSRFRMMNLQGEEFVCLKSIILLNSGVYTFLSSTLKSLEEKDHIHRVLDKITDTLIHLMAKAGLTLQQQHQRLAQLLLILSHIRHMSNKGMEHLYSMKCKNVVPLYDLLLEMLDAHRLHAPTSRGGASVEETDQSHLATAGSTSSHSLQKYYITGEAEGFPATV
structure (smiles),measurement,setting,value
Nc1ccc(-c2ccc(N)c(N)c2)cc1N,Potency,[1],"inconclusive: 8.61 µM [cytotoxic, full curve, poor fit] and inconclusive: 48.6 µM [cytotoxic, partial curve]"
same,Potency,[2],"inconclusive: 68.6 µM [cytotoxic, partial curve]"
same,Potency,[3],"inconclusive: 48.6 µM [cytotoxic, partial curve, poor fit]"
same,Potency,[4],active: 48.4 µM and active: 24.3 µM
same,Potency,[5],"inconclusive: 77 µM [cytotoxic, single point]"
same,Potency,[6],inactive
same,"activity, negative = inhibition",[7],inconclusive: -11.8% and inconclusive: -7.12%
same,Potency,[8],inconclusive: 60.9 µM [cytotoxic] and inactive
CC(=O)[O][Hg][c]1ccccc1,Potency,[1],active: 1.92 µM and active: 3.86 µM and active: 5.31 µM
same,Potency,[9],active: 2.07 µM and active: 5.88 µM and active: 4.92 µM
same,Potency,[10],active: 60.6 µM and active: 68.6 µM
same,Potency,[3],"inconclusive: 7.63 µM [cytotoxic, full curve] and inconclusive: 2.66 µM [cytotoxic, full curve]"
same,activation,[3],inconclusive: -16.7%
same,Potency,[11],active: 4.81 µM and active: 3.86 µM and active: 5.31 µM
same,Potency,[5],active: 5.4 µM and active: 5.45 µM and active: 5.96 µM
same,Potency,[12],active: 8.63 µM and active: 7.76 µM and active: 9.52 µM
c1ccc2c(c1)[nH]c1cnccc12,Potency,[1],"inconclusive: 43.3 µM [cytotoxic, partial curve]"
same,Potency,[13],inactive
same,Potency,[4],active: 27.3 µM
same,Potency,[5],inactive
same,"activity, negative = inhibition",[7],inconclusive: -16.2%
CCOP(=S)(OCC)Oc1nc(Cl)c(Cl)cc1Cl,Potency,[1],"active: 38.6 µM and inconclusive: 27.3 µM [cytotoxic, single point]"
same,Potency,[10],active: 27.4 µM and active: 54.5 µM
same,Potency,[2],"inconclusive: 1.22 µM [cytotoxic, partial curve, poor fit] and inactive"
same,activation,[3],inconclusive: 5.98%
same,Potency,[11],"inconclusive: 54.6 µM [cytotoxic, partial curve, poor fit] and inconclusive: 43.3 µM [cytotoxic, partial curve]"
same,Potency,[5],active: 61.3 µM and inactive
same,Potency,[12],"inconclusive: 8.73 µM [cytotoxic, partial curve]"
same,"activity, negative = inhibition",[7],inconclusive: -24.5% and inconclusive: -0.248%
same,Potency,[8],"inconclusive: 77.1 µM [cytotoxic, single point]"
same,Potency,[14],inconclusive: 68.7 µM
same,Potency,[15],"inconclusive: 68.7 µM [activator, partial curve, poor fit]"
O=[N+]([O-])c1c(Cl)c(Cl)cc(Cl)c1Cl,Potency,[1],"inconclusive: 0.611 µM [cytotoxic, single point]"
same,Potency,[10],"inconclusive: 0.433 µM [falling, single point]"
same,Potency,[5],"inconclusive: 0.386 µM [cytotoxic, partial curve, poor fit]"
same,Potency,[16],"inconclusive: 54.9 µM [rising, single point]"
same,"activity, negative = inhibition",[7],inconclusive: -5.65%
S=C=NCCc1ccccc1,Potency,[1],"inconclusive: 48.7 µM [cytotoxic, partial curve]"
same,Potency,[13],"inconclusive: 27.4 µM [activator, partial curve]"
same,Potency,[4],active: 19.4 µM
same,Potency,[11],active: 21.7 µM
same,Potency,[5],"inconclusive: 24.4 µM [cytotoxic, full curve]"
same,Potency,[8],"inconclusive: 68.7 µM [cytotoxic, single point]"
same,Potency,[14],"inconclusive: 68.7 µM [cytotoxic, single point]"
C=CC(=O)OCC(CC)(COC(=O)C=C)COC(=O)C=C,Potency,[1],active: 62.8 µM and active: 19.3 µM
same,Potency,[2],active: 70.4 µM and active: 43.3 µM
same,Potency,[3],"inconclusive: 68.6 µM [cytotoxic, single point]"
same,Potency,[4],active: 25 µM and active: 17.2 µM
same,Potency,[11],active: 56 µM and active: 43.3 µM
same,Potency,[5],active: 70.4 µM and active: 24.3 µM
same,"activity, negative = inhibition",[7],inconclusive: -3.73% and inconclusive: -1.39%
same,Potency,[14],active: 4.99 µM and active: 4.86 µM
same,Potency,[15],"inconclusive: 2.8 µM [activator, single point] and active: 4.86 µM"
CCOP(=S)(OCC)Oc1cc(C)nc(C(C)C)n1,Potency,[1],"inconclusive: 33.5 µM [cytotoxic, single point]"
same,Potency,[10],inconclusive: 61.1 µM
same,"activity change, negative = inhibition",[10],inconclusive: -11.7% [at 42.5 µM]
Cc1cc(-c2ccc(N)c(C)c2)ccc1N,Potency,[1],"inconclusive: 60.9 µM [cytotoxic, single point] [middle of 4 runs]"
same,Potency,[9],inconclusive: 61.8 µM
same,cAMP activity change,[9],inconclusive: -5.89% and inconclusive: -18.3% and inconclusive: -20.7%
same,"activity change, negative = inhibition",[10],inconclusive: -11.6%
same,Potency,[5],"inconclusive: 69.4 µM [rising, single point]"
same,Potency,[8],"inconclusive: 68.6 µM [cytotoxic, single point]"
O=S1(=O)OCC2C(CO1)C1(Cl)C(Cl)=C(Cl)C2(Cl)C1(Cl)Cl (configuration not stated),Potency,[1],"inconclusive: 27.3 µM [cytotoxic, single point]"
same,Potency,[10],"inconclusive: 54.5 µM [falling, single point]"
same,Potency,[4],"inconclusive: 30.6 µM [rising, partial curve]"
same,Potency,[16],"inconclusive: 49 µM [rising, partial curve]"
same,Potency,[14],active: 48.6 µM
S=C=Nc1cccc2ccccc12,Potency,[1],active: 60.5 µM
same,"activity change, negative = inhibition",[10],inconclusive: 7.82%
same,activation,[3],inconclusive: -20%
same,Potency,[4],active: 67.9 µM
same,Potency,[11],"inconclusive: 67.9 µM [cytotoxic, single point]"
same,Potency,[5],"inconclusive: 67.9 µM [cytotoxic, single point]"
same,"activity, negative = inhibition",[7],inconclusive: -11.4%
same,Potency,[8],active: 53.9 µM
CC(=O)[O][Pb]([c]1ccccc1)([c]1ccccc1)[c]1ccccc1,Potency,[1],active: 4.86 µM
same,Potency,[10],active: 24.3 µM
same,Potency,[2],active: 19.3 µM
same,Potency,[3],"inconclusive: 30.6 µM [cytotoxic, full curve]"
same,Potency,[4],"inconclusive: 48.6 µM [falling, partial curve, poor fit]"
same,Potency,[11],active: 4.33 µM
same,Potency,[5],active: 4.33 µM
same,Potency,[6],active: 4.9 µM
same,Potency,[16],"inconclusive: 6.92 µM [fluorescent, partial curve]"
same,Potency,[7],inconclusive: 4.9 µM [full curve]
same,Potency,[14],active: 0.386 µM
same,Potency,[15],active: 0.486 µM
